# Test results published in PubChem BioAssay AID1768 (National Center for Advancing Translational Sciences (NCATS), 2009).
# Screen size: about 270,000 compounds; about 620 (0.23%) were called active. Inconclusive results, whose numbers are uncertain, are shown with a selection of clear calls. Calls come from the whole dose curve; as a rule, active = well fitted inhibition curve with a large enough effect in the polarisation, with a control signal flat (not every such curve was filed as active); inconclusive = small, poorly fitted or top-dose-only effect, or effect the other way, or a change in a side signal; inactive = no such curve, though single readings can be large or run the other way; the % refers to the polarisation. A potency beside an inconclusive call is a rough fit, not a confirmed value. “Side channel” marks fits to a control or component signal instead of the main read-out.
# Target: Menin (Homo sapiens) (UniProt O00255)
# Sequence of UniProt O00255 (O00255 whole entry, looked up): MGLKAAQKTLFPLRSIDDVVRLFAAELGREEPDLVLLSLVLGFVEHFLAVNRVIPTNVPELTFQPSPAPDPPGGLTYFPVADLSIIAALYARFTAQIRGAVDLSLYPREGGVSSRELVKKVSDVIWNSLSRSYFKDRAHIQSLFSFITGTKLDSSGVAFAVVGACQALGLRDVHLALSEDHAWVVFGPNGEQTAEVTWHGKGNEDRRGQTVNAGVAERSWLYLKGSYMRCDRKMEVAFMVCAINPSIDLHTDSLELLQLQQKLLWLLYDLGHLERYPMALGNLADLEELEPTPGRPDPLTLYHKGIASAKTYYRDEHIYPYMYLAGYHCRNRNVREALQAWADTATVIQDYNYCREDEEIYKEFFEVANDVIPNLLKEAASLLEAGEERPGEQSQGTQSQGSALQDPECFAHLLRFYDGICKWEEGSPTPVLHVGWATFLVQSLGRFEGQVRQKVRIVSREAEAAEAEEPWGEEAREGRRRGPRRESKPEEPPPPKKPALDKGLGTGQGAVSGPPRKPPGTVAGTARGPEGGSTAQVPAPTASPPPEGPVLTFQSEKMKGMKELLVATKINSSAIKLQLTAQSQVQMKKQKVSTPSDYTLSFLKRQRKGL
# Assay: qHTS Assay for Inhibitors Targeting the Menin-MLL Interaction in MLL Related Leukemias: Competition With Texas Red Labeled MLL-derived Mutant Peptide
# Details: fluorescence polarization; series mostly up to 61.6 µM
# Potency is the fitted concentration of half-maximal effect; tags give direction and shape of the fitted curve or compound fluorescence and quenching.
row,SMILES,Potency
1,Cc1cc2c3c(c1)C1(SCC(=O)N1c1ccc(F)cc1)C(=O)N3C(C)(C)CC2C (stereo not drawn),"inconclusive: 3.55 µM [fluorescent, side channel, full curve, poor fit]"
2,CCOC(=O)N1CCC2(CC1)CC(=O)c1c(ccc3oc(C(=O)O)c(C)c13)O2,inactive
3,CN(C)c1ccc(C(=O)OCC(=O)NCCC2=CCCCC2)cc1,"inconclusive: 3.98 µM [fluorescent, side channel, single point]"
4,COc1ccc(-c2ccc3nnc(SCC(N)=O)n3n2)cc1,"inconclusive: 35.5 µM [inhibitor, single point]"
5,O=C(CCS(=O)CCC(=O)NCc1ccccc1)NCc1ccccc1,"inconclusive: 39.8 µM [inhibitor, single point]"
6,Cc1ccc(C(=O)Nc2sc3c(c2C(=O)O)CCCCC3)o1,inactive
7,CCc1ccc(NC(=O)c2cc(-c3ccco3)on2)cc1,"inconclusive: 35.5 µM [inhibitor, single point]"
8,O=C(NC(=S)Nc1cc(Cl)ccc1O)c1cccc(Br)c1,"inconclusive: 14.1 µM [quencher, side channel, partial curve]"
9,Nc1cc(=O)[nH]c(SCc2cccc(Cl)c2)n1,"inconclusive: 35.5 µM [inhibitor, single point]"
10,COc1cc(/C=C(\C#N)c2nc3ccccc3[nH]2)cc(Br)c1OCc1ccc(F)cc1,"inconclusive: 10 µM [quencher, side channel, partial curve]"
11,O=C(CCC1CCCC1)NCc1cccs1,"inconclusive: 1.41 µM [inhibitor, partial curve]"
12,CC1CCc2c(sc(NC(=O)c3cccs3)c2C(=O)O)C1 (stereo not drawn),"inconclusive: 22.4 µM [quencher, side channel, partial curve]"
13,CCn1c2ccccc2c2cc(NC(=O)CCCN3C(=O)CCC3=O)ccc21,"inconclusive: 12.6 µM [quencher, side channel, partial curve]"
14,COc1ccc(-n2c(NC(=O)c3ccc(Br)o3)c(C#N)c3nc4ccccc4nc32)cc1,"inconclusive: 7.08 µM [quencher, side channel, partial curve]"
15,Cn1c(=O)[nH]c(=O)c2c1nc(N1CCc3ccccc3C1)n2CCSc1nc2ccccc2s1,"inconclusive: 1.26 µM [inhibitor, partial curve]"
16,N#Cc1cc2c(N)c(C(=O)Nc3ccccc3)sc2nc1N,"inconclusive: 28.2 µM [quencher, side channel, single point]"
17,Cc1ccc(OCC(=O)NNC(=O)C2CCN(c3ncccn3)CC2)cc1,"inconclusive: 22.4 µM [inhibitor, partial curve]"
18,CC1CCCC(C)N1/N=C/c1cc(Br)cc(Br)c1O (stereo not drawn),"inconclusive: 28.2 µM [quencher, side channel, single point]"
19,CCCCCCCCCCCCC/C=C\[C@@H](O)[C@@H](N)CO,"inconclusive: 14.1 µM [fluorescent, side channel, partial curve]"

row,SMILES,Potency
1,CN1/C(=C\C=C(/C#N)C(=O)Nc2ccccc2F)C(C)(C)c2ccccc21,"inconclusive: 39.8 µM [inhibitor, single point]"
2,CC(C)(C)OC(=O)NN1CC(=O)N2Cc3[nH]c4ccccc4c3C[C@H]2C1=O,"inconclusive: 0.112 µM [inhibitor, full curve, poor fit]"
3,O=C(COc1ccc2c(c1)C(=O)CC1(CCCCC1)O2)NCc1ccccc1,inactive
4,c1ccc(CC2CNc3ccccc3CN2)cc1 (stereo not drawn),"inconclusive: 44.7 µM [inhibitor, partial curve]"
5,O=C(Nc1cc(Cl)ccc1Cl)c1ccc(-c2ccccc2)cc1,"inconclusive: 8.91 µM [inhibitor, full curve]"
6,OCC1OC(c2ccc3c(c2)OCO3)C=CC1Oc1cc(Cl)cc(Cl)c1 (stereo not drawn),"inconclusive: 0.631 µM [inhibitor, full curve, poor fit]"
7,c1ccc(-c2ccccc2OCCCCn2ccnc2)cc1,"inconclusive: 39.8 µM [inhibitor, single point]"
8,Cc1cc(Oc2ccccc2)nc(-c2ccccc2)n1,inactive
9,O=C(/C=C/c1c(Cl)cccc1Cl)NCCc1ccccc1,"inconclusive: 39.8 µM [inhibitor, single point]"
10,COC(=O)c1ccc2nc(NC(=O)C(C)C)sc2c1,inactive
11,Cc1cccc(NC(=O)Nc2cccc(Oc3c(F)c(F)c(F)c(F)c3F)c2)c1,"inconclusive: 7.08 µM [quencher, side channel, full curve]"
12,O=S(=O)(NCC1CCCO1)c1ccc(Oc2ccccc2)cc1 (stereo not drawn),"inconclusive: 10 µM [inhibitor, partial curve, poor fit]"
13,COc1cccc2c1C(=O)c1c(O)c3c(c(O)c1C2=O)C[C@](O)(C(C)=O)C[C@H]3O[C@@H]1C[C@H](N)[C@H](O)[C@H](C)O1,"inconclusive: 14.1 µM [fluorescent, side channel, partial curve]"
14,O=C(OC1CCOC1=O)c1cc(-c2ccc(Cl)cc2)nc2ccccc12 (stereo not drawn),"inconclusive: 11.2 µM [quencher, side channel, partial curve]"
15,COc1ccc(OC)c(Nc2nc(-c3sc(C)nc3C)cs2)c1,"inconclusive: 11.2 µM [quencher, side channel, partial curve]"
16,COc1cccc([C@@H]2Oc3ccc(OC)cc3C(=O)[C@H]2O)c1,"inconclusive: 31.6 µM [fluorescent, side channel, single point]"
17,CCNc1nc(-c2ccc(Cl)cc2)cs1,"inconclusive: 15.8 µM [quencher, side channel, single point]"
18,C=CCOc1ccccc1CN1CCC(n2nccc2NC(=O)c2ccccc2)CC1,"inconclusive: 17.8 µM [inhibitor, single point]"
19,CC(=O)Nc1ccc(C(=O)Nc2nc(-c3ccccn3)cs2)cc1,"inconclusive: 20 µM [quencher, side channel, partial curve, poor fit]"
